Measured values taken from patent US20120190616A1 (IPSEN PHARMA S A S, published 2012).

B1: (Arg^49, Ile^59)hIGF-1([…])-OH (ligand)
chain: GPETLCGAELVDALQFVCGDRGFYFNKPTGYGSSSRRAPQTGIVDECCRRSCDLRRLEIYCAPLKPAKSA
notes: synthetic; free acid C-terminus; disulfides […], 47-52, […]
B2: (Asn^59, D-Lys^65)hIGF-1([…])-OH (ligand)
chain: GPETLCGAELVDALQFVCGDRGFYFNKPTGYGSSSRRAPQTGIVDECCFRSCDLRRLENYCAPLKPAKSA
modifications: D-Lys at 65
notes: synthetic; free acid C-terminus
B3: (Asn^59, Phe^60)hIGF-1([…])-OH (ligand)
chain: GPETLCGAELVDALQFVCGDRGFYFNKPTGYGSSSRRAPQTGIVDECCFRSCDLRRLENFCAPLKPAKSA
notes: as for B1
B4: (Asn^59,62)hIGF-1([…])-OH (ligand)
chain: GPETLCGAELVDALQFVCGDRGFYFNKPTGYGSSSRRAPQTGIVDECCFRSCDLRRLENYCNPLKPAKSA
notes: as for B1
B5: (Asp^59)hIGF-1([…])-OH (ligand)
chain: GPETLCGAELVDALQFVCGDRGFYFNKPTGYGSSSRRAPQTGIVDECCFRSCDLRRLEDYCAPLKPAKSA
notes: as for B1
B6: (Tyr^59)hIGF-1([…])-OH (ligand)
chain: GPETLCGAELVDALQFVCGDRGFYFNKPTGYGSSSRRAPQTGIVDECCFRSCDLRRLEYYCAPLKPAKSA
notes: as for B1
B7: (Asn^59, D-Leu^64)hIGF-1([…])-OH (ligand)
chain: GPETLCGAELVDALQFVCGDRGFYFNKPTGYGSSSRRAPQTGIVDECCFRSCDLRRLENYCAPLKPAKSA
modifications: D-Leu at 64
notes: as for B2
B8: (Ser^50, Asn^59)hIGF-1([…])-OH (ligand)
chain: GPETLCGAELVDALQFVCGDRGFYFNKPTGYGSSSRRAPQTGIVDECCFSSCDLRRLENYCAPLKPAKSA
notes: as for B1
B9: (Leu^59, Thr^69)hIGF-1([…])-OH (ligand)
chain: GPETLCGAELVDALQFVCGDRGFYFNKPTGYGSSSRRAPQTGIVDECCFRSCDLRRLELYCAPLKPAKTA
notes: as for B1
B10: (Arg^51, Ile^59)hIGF-1([…])-OH (ligand)
chain: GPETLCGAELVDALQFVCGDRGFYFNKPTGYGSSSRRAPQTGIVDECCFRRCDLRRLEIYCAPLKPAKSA
notes: as for B1
B11: (Asn^59, D-Pro^66)hIGF-1([…])-OH (ligand)
chain: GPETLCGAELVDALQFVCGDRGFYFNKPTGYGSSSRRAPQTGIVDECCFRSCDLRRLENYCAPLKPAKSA
modifications: D-Pro at 66
notes: as for B2
B12: (Asn^59, D-Lys^68)hIGF-1([…])-OH (ligand)
chain: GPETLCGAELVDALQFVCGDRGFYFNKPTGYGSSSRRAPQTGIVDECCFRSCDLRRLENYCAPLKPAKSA
modifications: D-Lys at 68
notes: as for B2
B13: (Glu^59)hIGF-1([…])-OH (ligand)
chain: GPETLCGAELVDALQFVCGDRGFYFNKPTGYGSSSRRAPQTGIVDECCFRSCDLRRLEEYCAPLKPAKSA
notes: as for B1
B14: (Tyr^55, Asn^59)hIGF-1([…])-OH (ligand)
chain: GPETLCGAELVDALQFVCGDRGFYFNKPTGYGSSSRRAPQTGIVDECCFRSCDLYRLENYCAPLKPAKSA
notes: as for B1
B15: (Asn^59, D-Ala^69)hIGF-1([…])-OH (ligand)
chain: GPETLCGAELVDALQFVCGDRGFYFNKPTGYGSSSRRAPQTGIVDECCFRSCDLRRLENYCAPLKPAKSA
modifications: D-Ala at 67 (paragraph 170 prints D-Ala^69; the claims print D-Ala^67; the expected mass 7631.6 fits position 67)
notes: also called (Asn^59, D-Ala^67)hIGF-1([…])-OH
B16: (Thr^49, Asn^59)hIGF-1([…])-OH (ligand)
chain: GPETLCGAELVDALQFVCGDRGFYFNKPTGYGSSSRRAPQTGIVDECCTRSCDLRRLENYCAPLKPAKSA
notes: as for B1
B17: (Asn^59, D-Ala^70)hIGF-1([…])-OH (ligand)
chain: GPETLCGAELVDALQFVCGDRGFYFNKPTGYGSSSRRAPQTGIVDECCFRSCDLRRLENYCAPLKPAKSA
modifications: D-Ala at 70
notes: as for B2
B18: (Asn^59, D-Pro^63)hIGF-1([…])-OH (ligand)
chain: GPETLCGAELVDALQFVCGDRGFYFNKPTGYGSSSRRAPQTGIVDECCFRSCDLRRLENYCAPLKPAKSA
modifications: D-Pro at 63
notes: as for B2
B19: (Thr^51, Leu^59)hIGF-1([…])-OH (ligand)
chain: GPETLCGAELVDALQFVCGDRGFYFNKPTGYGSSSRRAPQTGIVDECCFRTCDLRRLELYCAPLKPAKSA
notes: as for B1
B20: (Leu^49,59)hIGF-1([…])-OH (ligand)
chain: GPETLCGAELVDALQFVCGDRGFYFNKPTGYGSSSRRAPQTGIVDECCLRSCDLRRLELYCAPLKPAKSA
notes: as for B1
B21: (Arg^59)hIGF-1([…])-OH (ligand)
chain: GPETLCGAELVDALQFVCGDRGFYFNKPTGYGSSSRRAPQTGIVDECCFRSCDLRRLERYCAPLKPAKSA
notes: as for B1
B22: (Ser^59)hIGF-1([…])-OH (ligand)
chain: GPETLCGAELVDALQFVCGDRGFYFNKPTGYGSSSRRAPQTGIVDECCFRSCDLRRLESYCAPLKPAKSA
notes: as for B1
B23: (Gln^56, Asn^59)hIGF-1([…])-OH (ligand)
chain: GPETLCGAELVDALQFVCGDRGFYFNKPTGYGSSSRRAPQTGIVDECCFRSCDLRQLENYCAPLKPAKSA
notes: as for B1
B24: (Asn^59, D-Ser^69)hIGF-1([…])-OH (ligand)
chain: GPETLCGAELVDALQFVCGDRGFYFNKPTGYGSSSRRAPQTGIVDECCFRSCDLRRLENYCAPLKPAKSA
modifications: D-Ser at 69
notes: as for B2
B25: (Ser^53, Asn^59)hIGF-1([…])-OH (ligand)
chain: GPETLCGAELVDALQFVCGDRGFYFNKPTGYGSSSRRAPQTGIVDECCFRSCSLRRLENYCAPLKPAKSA
notes: as for B1
B26: (Trp^59)hIGF-1([…])-OH (ligand)
chain: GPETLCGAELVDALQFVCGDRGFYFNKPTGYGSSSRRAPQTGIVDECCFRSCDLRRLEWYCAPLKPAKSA
notes: as for B1
B27: (Arg^53, Ile^59)hIGF-1([…])-OH (ligand)
chain: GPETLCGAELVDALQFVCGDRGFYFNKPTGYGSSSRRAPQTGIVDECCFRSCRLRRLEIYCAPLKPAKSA
notes: as for B1
B28: (Ser-Gly^1, Asn^59)hIGF-1([…])-OH (ligand)
chain: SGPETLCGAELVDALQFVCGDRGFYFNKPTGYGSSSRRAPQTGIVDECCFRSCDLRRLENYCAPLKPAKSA
notes: synthetic; extra Ser before Gly1; free acid C-terminus; disulfides […], 47-52, […]
B29: (Leu^59, Glu^71)hIGF-1([…])-OH (ligand)
chain: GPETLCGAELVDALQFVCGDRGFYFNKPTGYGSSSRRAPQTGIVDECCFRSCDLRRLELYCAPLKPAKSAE
notes: synthetic; one residue added at position 71; free acid C-terminus
B30: (Leu^59, Ser^71)hIGF-1([…])-OH (ligand)
chain: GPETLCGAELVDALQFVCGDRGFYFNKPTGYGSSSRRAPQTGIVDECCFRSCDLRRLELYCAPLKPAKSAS
notes: as for B29
B31: (Leu^59, Asp^71)hIGF-1([…])-OH (ligand)
chain: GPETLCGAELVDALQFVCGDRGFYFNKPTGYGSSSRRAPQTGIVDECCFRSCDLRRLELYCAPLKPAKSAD
notes: as for B29
B32: (Leu^59, Lys^71)hIGF-1([…])-OH (ligand)
chain: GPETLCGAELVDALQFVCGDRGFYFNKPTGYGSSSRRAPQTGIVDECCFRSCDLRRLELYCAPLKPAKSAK
notes: as for B29

target: T1, native IGF-1 receptor of human MCF-7 cells (human, UniProt P08069 31-1367); assay: radioligand competition, [125I]IGF-1 on MCF-7 cell membranes
T1 construct: whole, on cells; assayed in membranes prepared from MCF-7 cells
Protocol: The homogenates were washed twice by centrifugation (39,000 g/10 minutes) and the final pellets were resuspended in 50 mM Tris-HCl containing 2.5 mM MgCl₂ and 0.1% BSA.
Unlabeled competing test peptides were sometimes included. The final assay volume was 0.25 ml. […] The supernatant was decanted and the radioactive particles trapped in the pellet was counted by gamma spectrometry (Wallac LKB, Gaithersburg, Md., USA).

IC50 [nM] | Binder
6.31 | B1
2.77 | B2
1.47 | B3
1.85 | B4
18.5 | B5
2.18 | B6
2.61 | B7
1.25 | B8
2.66 | B9
9.27 | B10
0.72 | B11
1.6 | B12
1.29 | B13
3.62 | B14
2.77 | B15
2.9 | B16

IC50 [nM] | Binder
0.91 | B17
0.81 | B18
2.25 | B19
2.4 | B20
3.49 | B21
30.6 | B22
5.94 | B23
1.57 | B24
0.66 | B25
4.54 | B26
1.27 | B27
4.11 | B28
3.25 | B29
2.03 | B30
13.2 | B31
1.95 | B32
